Source: PubChem BioAssay AID651820 (National Center for Advancing Translational Sciences (NCATS), 2012)
The whole screen tested about 340,000 compounds, of which about 12,000 (3.5%) were called active. Inconclusive means that the source gave no clear call. Such entries were picked first, then a sample of the others. Calls follow the shape of the dose curve; as a rule, active = well fitted inhibition curve with a large enough effect; inconclusive = small, poorly fitted or top-dose-only effect, or another doubt; inactive = no such curve, though single readings can be large or run the other way. No potency is given beside an inconclusive call; the fits are too rough.

Test: qHTS Assay for Inhibitors of Hepatitis C Virus (HCV)
Conditions: Huh7.5.1 HCVcc-Cre (HCVcc is cell-culture hepatitis C virus) infection, luciferase reporter, 44 h; activity change, negative = inhibition: at 41.8 µM (top of the series) unless noted
Procedure, shortened: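 Luciferase read-out (15 sec integration) after a 15 min room-temperature substrate step quantifies HCVcc-Cre infection. Cells, 1,000 per well, had compound added 4 h post-plating, then virus at ~0.5 moi, and were cultured 44 h.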
% is scaled to controls: 0 for no effect and ±100 for the full control effect; potency is read from the fitted curve at half-maximal effect; tags tell the direction and shape of the fitted curve.

SMILES	Potency	activity change, negative = inhibition
Cc1cc2cc(CNC(=S)NC3CCCCC3)ccc2[nH]1	active: 10 µM	
O=C(OCC(=O)N1CCCC1=O)c1ncc(Cl)c(Cl)c1Cl	inconclusive [inhibitor, partial curve]	
O=C(Cn1nnc(-c2ccccc2Cl)n1)NCc1ccc2c(c1)OCO2	inconclusive [inhibitor, single point]	
CCOC(=O)c1cc(CC)sc1NC(=O)CN1CCN(C(=O)c2ccco2)CC1	inconclusive [inhibitor, single point]	
CCOc1ccc(-n2c(SCC(=O)Nc3ccc(Br)cc3)nc3n[nH]c(C)c3c2=N)cc1	inconclusive [inhibitor, full curve, poor fit]	
C=CCOc1ccc(/C(CC)=N/O)c(OC)c1	inconclusive [inhibitor, single point]	
CC(C)(C)Nc1nc(Cl)nc(NC(C)(C)C)n1	inactive	
CC(C)Oc1cccc(C(=O)C2CCCN(Cc3ccc(Oc4ncccn4)cc3)C2)c1 (stereo not given)	inconclusive [inhibitor, single point]	
COc1ccc(C(=O)NCc2ccccc2)cc1S(=O)(=O)N1CCCc2ccccc21	active: 11.2 µM	
CCOC(=O)C1(Cc2cccc(F)c2)CCN(C(=O)C2CCC2)CC1	inactive	
O=C(NCc1ccc(Cl)cc1)C(=O)NCC1OCCN1S(=O)(=O)c1ccc2c(c1)OCCO2 (stereo not given)	inconclusive [inhibitor, single point]	
Cc1ccc(S(=O)(=O)NCc2nc3ccccc3[nH]2)cc1	inconclusive [inhibitor, single point]	
O=S(=O)(c1ccc(Cl)c(NC(=S)Nc2cccc(O)c2)c1)N1CCOCC1	inactive	
O=C(COC(=O)CCC(=O)c1cccs1)NC(=O)c1ccc(OC(F)F)cc1	inactive	
O=C(O)c1cc(S(=O)(=O)N2CCCCC2)ccc1N1CCOCC1	inactive	
O=C(COC(=O)c1ccc(F)c(S(=O)(=O)N2CCOCC2)c1)c1ccccc1	inactive	
CCc1ccc(C(CNC(=O)c2ccc3c(=O)n(-c4ccccc4F)c(=S)[nH]c3c2)N(C)C)cc1 (stereo not given)	active: 5.01 µM	
CN1CCN(C(=O)c2ccc3nc(-c4ccccc4)c(-c4ccccc4)nc3c2)CC1	inconclusive [inhibitor, single point]	
CCOC(=O)c1ccc(-[n+]2c(-c3ccccc3)cc(-c3ccccc3)cc2-c2ccccc2)cc1	active: 0.631 µM	
CCOCC(=O)Nc1cc(C(=O)NCCc2ccccc2)ccc1Cl	inactive	
Cc1cc(N2CCOCC2)n2ncc(-c3ccccc3Cl)c2n1	inconclusive [inhibitor, single point]	
CC(=O)c1cccc(NC(=O)CSc2ncc(C(=O)Nc3ccccc3)c(=O)n2C)c1	inconclusive [inhibitor, partial curve, poor fit]	
COc1ccc(Cl)cc1NC(=O)c1cc(-c2ccccc2)on1	inactive	
C=CCn1c(=O)[nH]c2cc(C(=O)N3CCN(c4cc(C)ccc4C)CC3)ccc2c1=O	inactive	

SMILES	Potency	activity change, negative = inhibition
Cc1ccc(N(CC(=O)NC2CCCC2)C(=O)c2ccc(C)s2)cc1	active: 11.2 µM	
COc1ccc(CCN2C(=O)C3C4CC(C5C(C(=O)O)=NOC45)C3C2=O)cc1OC (stereo not given)	inconclusive [inhibitor, single point]	
CCC1C(C#N)=C(N)OC2=C1C(=O)CC(C)(C)C2 (stereo not given)	inactive	
c1ccc(OCCCCn2cnc3ccccc32)cc1	inconclusive [inhibitor, partial curve]	
Cc1onc(-c2ccccc2)c1C(=O)N1CCN(c2ncccc2C(F)(F)F)CC1	inconclusive [inhibitor, single point]	
CN1C(=O)/C(=C\c2ccccc2F)Sc2ccc(C(=O)NC3CCN(Cc4ccccc4)CC3)cc21	active: 3.98 µM	
CCOc1ccc(C(=O)C[n+]2cccc3cc(C)ccc32)cc1	inconclusive [inhibitor, single point]	
COc1ccc(C(=O)NC(Nc2ccc(C)cc2)C(Cl)(Cl)Cl)cc1 (stereo not given)	inconclusive [inhibitor, partial curve]	
COC(=O)c1cc(NC(=O)c2cccc(F)c2)cc(C(=O)OC)c1	inconclusive [inhibitor, single point]	
CCCc1cc(NCc2ccccn2)n2nc(C)c(-c3ccccc3)c2n1	inconclusive [inhibitor, partial curve]	
COc1ccc(C(C)=O)cc1COc1ccccc1[N+](=O)[O-]	active: 6.31 µM	
CC(C)(C)c1ccc(C(=O)N/C(=C/c2cccs2)C(=O)NCc2ccco2)cc1	inactive	
N#C/C(=N\Nc1ccc(Cl)cc1)C(=O)c1ccccc1	active: 22.4 µM	
CCc1cc2cc(C(=O)N3CCN(Cc4ccccc4)CC3)sc2s1	inconclusive [inhibitor, partial curve]	
N#CC1(Nc2ccc(C(=O)O)cc2)CCCC1	inactive	
COC(=O)c1c(C(=O)OC)c2cc(C(=O)c3ccccc3)ccn2c1Cl	inconclusive [inhibitor, partial curve]	
S=C1NCCNC(=S)NCCOCCOCCN1	inactive	
COc1cc(CN2CCC(CO)(Cc3cccc(C(F)(F)F)c3)CC2)ccc1F	inconclusive [inhibitor, single point]	
Oc1ccccc1-c1nc2c3ccccc3c3ccccc3c2[nH]1	inconclusive [inhibitor, single point]	
CC(C)c1ccc(NC2CCCN(C(=O)c3cc(C(C)C)nc(N)n3)C2)cc1 (stereo not given)	inactive	
CC(=O)c1nn(-c2cccc(Br)c2)cc1C(=O)c1ccc(Br)cc1	inactive	
CCOc1ccccc1-c1nnc(SCC(=O)NC2CC2)n1CC	inactive	
CCc1c(C)nc(Nc2nc(C)c3cc(OC)ccc3n2)[nH]c1=O	inconclusive [inhibitor, partial curve]	
COc1ccc(CCC(=O)Nc2cccc(S(=O)(=O)N3CCCC3)c2)cc1OC	inconclusive [inhibitor, partial curve]	

SMILES	Potency	activity change, negative = inhibition
CCOC(=O)Cc1cc(=O)n2[nH]c(C)c(-c3ccc(Cl)cc3)c2n1	inconclusive [inhibitor, single point]	
CCOC(=O)[C@]12Cc3cc(N(C)C)ccc3[C@H]1N(Cc1ccccc1)C(=O)c1ccccc12	active: 11.2 µM	
COc1ccc2oc(=O)c(C(=O)N3CCCC3)cc2c1	inconclusive [inhibitor, single point]	
Cn1cccc1/C=N/NC(=O)Cc1cccs1	inactive	
O=S(=O)(c1cccc(-c2nc3n(n2)Cc2ccccc2-3)c1)N1CCCC1	inconclusive [inhibitor, single point]	
CC(=O)Nc1ccc(SC[C@H](CC(C)C)N2CCN(CC(C)C)CCC2=O)cc1		inactive: 47% [at 8.37 µM]
Cc1ccc(NC(=O)c2cc(NC(=O)c3ccco3)ccc2N2CCOCC2)cc1Cl	inconclusive [inhibitor, single point]	
CC(C)C(=O)N1CCN(c2ccccc2NC(=O)Cc2ccc(Cl)cc2)CC1	inconclusive [inhibitor, partial curve]	
Cc1nn(-c2ccc(N3CCCCC3)nn2)c(C)c1CCC(=O)Nc1cc(F)ccc1F	inconclusive [inhibitor, single point]	
COc1cccc(NC(=O)CN(c2ccccc2OC)S(=O)(=O)c2cccs2)c1	inconclusive [inhibitor, single point]	
CN1c2ccccc2C(C)(C)[C@]12C=Cc1cc(O)ccc1O2	active: 12.6 µM	
CCc1ccc(C(C(=O)NC(C)(C)CC)N(Cc2ccco2)C(=O)Cn2nnc3ccccc32)cc1 (stereo not given)	inconclusive [inhibitor, single point]	
Cc1ccc(C)c(N(CC(=O)Nc2ccccc2C(=O)NCc2ccco2)S(=O)(=O)c2ccccc2)c1	inconclusive [inhibitor, single point]	
COc1ccc(N2CCN(C3CCCN(Cc4ccccc4OCCO)C3)CC2)cc1 (stereo not given)	inconclusive [inhibitor, single point]	
COc1ccc(-c2nc(CN3CCC(C(=O)NC4CCN(Cc5ccccc5)CC4)CC3)c(C)o2)cc1OC	inconclusive [inhibitor, full curve]	
CC(C)(C)NC(=S)Nc1ccc(Nc2ccccc2)cc1	inconclusive [inhibitor, single point]	
CCOc1ccc(CN(CC)C(=O)c2ccc3c(c2)[nH]c(=O)c(=O)n3CC)cc1OC	inconclusive [inhibitor, full curve, poor fit]	
CCc1ccc(S(=O)(=O)NCc2csc(C)n2)cc1	inactive	
Cc1ccc(S(=O)(=O)N(C)Cc2ccc(C(=O)N/N=C/c3ccc(OC(F)F)cc3OC(F)F)cc2)cc1	inconclusive [inhibitor, full curve, poor fit]	
O=C(C[C@H]1C[C@H](C(=O)N2CCCCC2)[C@@]2(CCc3ccccc3)c3[nH]c4cc(-c5ccco5)ccc4c3CCN2C1=O)NCCN1CCOCC1	inconclusive [inhibitor, single point]	
Cc1ccccc1NC(=O)COC(=O)c1c(-c2ccccc2)noc1C	inconclusive [inhibitor, single point]	
CCN(C(=O)c1cc2c(s1)-c1ccccc1OC2)c1cc(OC)ccc1OC	active: 12.6 µM	
